Consider 56 molecules from paper PMC4336329 (PLoS ONE, 2015).

About 14,000 (4.5%) of roughly 310,000 compounds showed an effect of 50% or more. Effects have a minus sign here. Some of the results follow.
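Also: peak tail current of the secondary pulse compared with the same well before compound.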

The target in the assay is human ether-à-go-go-related gene (hERG) potassium channel (human, UniProt Q12809). Nature of the assay: primary screen, population patch clamp on CHO cells stably expressing hERG.
Sequence of human ether-à-go-go-related gene (hERG) potassium channel (Q12809 whole entry, looked up): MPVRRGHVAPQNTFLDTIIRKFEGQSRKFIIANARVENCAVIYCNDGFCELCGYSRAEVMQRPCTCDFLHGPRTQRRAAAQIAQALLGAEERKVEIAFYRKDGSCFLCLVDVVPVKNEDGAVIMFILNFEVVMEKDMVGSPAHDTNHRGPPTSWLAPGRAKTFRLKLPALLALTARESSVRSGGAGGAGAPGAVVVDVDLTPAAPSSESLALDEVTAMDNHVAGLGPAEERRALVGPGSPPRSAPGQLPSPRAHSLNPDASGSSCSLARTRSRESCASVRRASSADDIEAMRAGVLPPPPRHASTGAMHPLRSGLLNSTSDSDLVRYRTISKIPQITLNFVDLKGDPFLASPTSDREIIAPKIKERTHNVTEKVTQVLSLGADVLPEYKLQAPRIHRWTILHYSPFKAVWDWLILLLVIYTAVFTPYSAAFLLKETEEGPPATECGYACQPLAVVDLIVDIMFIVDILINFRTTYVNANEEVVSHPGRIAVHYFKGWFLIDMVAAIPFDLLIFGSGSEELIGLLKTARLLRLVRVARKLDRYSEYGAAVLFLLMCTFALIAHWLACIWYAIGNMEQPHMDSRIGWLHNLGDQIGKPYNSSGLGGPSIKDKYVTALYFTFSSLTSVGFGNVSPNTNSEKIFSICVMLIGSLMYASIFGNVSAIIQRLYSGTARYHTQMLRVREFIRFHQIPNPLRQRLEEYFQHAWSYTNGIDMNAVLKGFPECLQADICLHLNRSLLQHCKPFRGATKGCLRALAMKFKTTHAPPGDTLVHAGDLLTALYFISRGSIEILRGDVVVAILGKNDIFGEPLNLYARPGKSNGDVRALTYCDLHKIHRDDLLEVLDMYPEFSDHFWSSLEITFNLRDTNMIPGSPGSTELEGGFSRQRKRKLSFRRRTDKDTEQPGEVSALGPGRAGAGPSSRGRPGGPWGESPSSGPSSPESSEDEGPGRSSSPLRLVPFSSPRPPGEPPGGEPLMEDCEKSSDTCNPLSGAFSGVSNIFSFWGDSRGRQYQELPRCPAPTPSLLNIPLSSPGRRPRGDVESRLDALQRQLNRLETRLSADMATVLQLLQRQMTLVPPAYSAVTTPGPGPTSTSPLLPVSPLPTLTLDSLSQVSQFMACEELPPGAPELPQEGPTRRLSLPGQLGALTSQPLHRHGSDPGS
In the case of `CC1(C(=O)NC2CCCC2)CCC(=O)N1CCC1=CCCCC1` (centres unmarked), the “hERG current change (%, negative = inhibition) at 10uM” value came to 5.41%.

With `O=C(CCCNc1ccccc1)N/N=C/c1cccs1`, the “hERG current change (%, negative = inhibition) at 10uM” value is -9.99%.

With `Cc1ccc(OCC(=O)NCc2ccco2)c([N+](=O)[O-])n1`, the “hERG current change (%, negative = inhibition) at 10uM” value is on record as -6.51%.

As for `COc1cc2c3nnc(-c4ccc(F)cc4)c-3cn(Cc3cccc(C)c3)c2cc1OC`, the “hERG current change (%, negative = inhibition) at 10uM” value was -1.27%.

On to `COc1ccc(OC)c(CC(NC(C)=O)C(=O)NC2CCN(c3nc(OC)nc(OC)n3)CC2)c1` (centres unmarked), for which the “hERG current change (%, negative = inhibition) at 10uM” value is reported as 31.8%.

Regarding `O=C(CSc1cn[nH]n1)Nc1ccccc1C(=O)O`, the “hERG current change (%, negative = inhibition) at 10uM” value came to 11.8%.

For `CCCS(=O)(=O)N1CCC(C(=O)NCc2cccnc2)CC1`, the “hERG current change (%, negative = inhibition) at 10uM” value came out at 8.85%.

With `Cc1cccnc1NC(=O)Cn1nc([N+](=O)[O-])cc1C`, the “hERG current change (%, negative = inhibition) at 10uM” value is on record as -2.42%.

Turning to `COc1cc2c(cc1OC)C(C(=O)NCCN(C)C)C(c1cccs1)N(C)C2=O` (centres unmarked), the “hERG current change (%, negative = inhibition) at 10uM” value was 2.79%.

Consider `Cc1cnc(C(=O)Nc2ccc(S(=O)(=O)NCC(C)C)cc2)cn1`, for which the “hERG current change (%, negative = inhibition) at 10uM” value is reported as 37.4%.

Consider `Cc1c(NC2=NC3(CCCCC3)Cc3ccccc32)c(=O)n(-c2ccccc2)n1C`, for which the “hERG current change (%, negative = inhibition) at 10uM” value is reported as -14.3%.

Regarding `Br.Cc1cc(NS(=O)(=O)c2ccc(Nc3nc(-c4sc(NC(=O)c5ccccc5)nc4C)cs3)cc2)no1`, the “hERG current change (%, negative = inhibition) at 10uM” value amounted to 5.2%.

As for `CC1=CC(C)(C)N2C(=O)C3(N=C(N)NC(Nc4ccccc4)=N3)c3cc(C)cc1c32` (centres unmarked), the “hERG current change (%, negative = inhibition) at 10uM” value is given as -5.62%.

`COc1ccc(CCN2CC(C(=O)NCCc3ccccc3C)CCC2=O)cc1` (centres unmarked): the “hERG current change (%, negative = inhibition) at 10uM” value was -29.9%.

Consider `O=C(NN1C(=O)CSC1=S)C(=O)NN1C(=O)CSC1=S`, for which the “hERG current change (%, negative = inhibition) at 10uM” value was 25.3%.

On to `OC1(c2ccccn2)COc2ccccc2O1` (centres unmarked), for which the “hERG current change (%, negative = inhibition) at 10uM” value is given as -10.5%.

On to `COc1ccc(NC(=O)CN2CCC3(O)CCCCC3C2c2cc(OC)ccc2OC)cc1` (centres unmarked), for which the “hERG current change (%, negative = inhibition) at 10uM” value was -14%.

Turning to `N#CC/C(N)=N/NC(=O)CCCNc1ncc(C(F)(F)F)cc1Cl`, the “hERG current change (%, negative = inhibition) at 10uM” value amounted to 17%.

On to `COc1ccccc1NS(=O)(=O)c1cccc(C(=O)NNC(=O)C(NC(N)=O)C(C)C)c1` (centres unmarked), for which the “hERG current change (%, negative = inhibition) at 10uM” value is reported as 3.59%.

Take `CCc1ccc(NC(=O)c2ccc(OC)c([N+](=O)[O-])c2)cc1`: the “hERG current change (%, negative = inhibition) at 10uM” value is on record as -4.65%.

As for `C#CCOc1c(/C=C\c2nc(O)c([N+](=O)[O-])c(=O)[nH]2)cc(Br)cc1OC`, the “hERG current change (%, negative = inhibition) at 10uM” value is 20.6%.

Consider `COc1ccc(/C=C2\CCC/C(=C\C=N\N(C)C)C2=O)cc1`, for which the “hERG current change (%, negative = inhibition) at 10uM” value stood at 2.29%.

For the molecule `Cc1ccc(/C=N/NC(=O)c2cc(C)oc2C)cc1`, the “hERG current change (%, negative = inhibition) at 10uM” value is listed as 4.58%.

`CC1CCN(C(=O)CSc2ccc(-c3cccc([N+](=O)[O-])c3)nn2)CC1`: the “hERG current change (%, negative = inhibition) at 10uM” value is on record as -49.6%.

Turning to `CN1CCN(CCCNC(=O)Cn2ncc3c4ccccc4n(C)c3c2=O)CC1`, the “hERG current change (%, negative = inhibition) at 10uM” value came to 12%.

Regarding `O=C(CSc1nc(-c2ccco2)cc(C(F)(F)F)n1)NCC1CCCO1` (centres unmarked), the “hERG current change (%, negative = inhibition) at 10uM” value was -4.45%.

With `CCOC(=O)C1CCN(Cc2ccc(F)c(F)c2)CC1`, the “hERG current change (%, negative = inhibition) at 10uM” value was found to be 11%.

On to `COC(=O)c1[nH]c2ccc(C)cc2c1NC(=O)NC1CCCCC1`, for which the “hERG current change (%, negative = inhibition) at 10uM” value is recorded as 8.55%.

On to `O=C(c1ccc(=O)[nH]n1)N1CCN(S(=O)(=O)c2ccc3ccccc3c2)CC1`, for which the “hERG current change (%, negative = inhibition) at 10uM” value is -2.3%.

`COC(=O)[C@@]12CCCCN1[C@H](c1ccc(-c3ccc(C(C)=O)cc3)c(OC)c1)[C@@H]1C(=O)N(C)C(=O)[C@@H]12.O=C(O)C(F)(F)F`: the “hERG current change (%, negative = inhibition) at 10uM” value came out at 0.453%.

Consider `CC(C)OCCCNC(=O)c1ccc2c(c1)S(=O)(=O)c1ccccc1C2=O`, for which the “hERG current change (%, negative = inhibition) at 10uM” value is -21.9%.

`CCOC(=O)C1(Cc2ccccc2Cl)CCN(C(=O)c2cc(C)on2)CC1`: the “hERG current change (%, negative = inhibition) at 10uM” value is reported as -34.8%.

On to `C[N+]1(CCCCCCC(=O)/C=N/O)CCCCCC1.[I-]`, for which the “hERG current change (%, negative = inhibition) at 10uM” value was determined as 15.6%.

On to `COc1cccc(NC(=O)CN(C)C(C)C(=O)Nc2ccc(C#N)cc2)c1` (centres unmarked), for which the “hERG current change (%, negative = inhibition) at 10uM” value is recorded as -59.3%.

`COc1cccc(CNS(=O)(=O)c2c(C(=O)N3CCCCC3)c(C)n(C)c2C)c1`: the “hERG current change (%, negative = inhibition) at 10uM” value amounted to 9.63%.

Turning to `O=C(Cc1ccccc1)N1CCCC(c2nc(-c3cccs3)no2)C1` (centres unmarked), the “hERG current change (%, negative = inhibition) at 10uM” value was -7.1%.

On to `CC(C)(C)c1ccc(NS(=O)(=O)c2ccc(N)cc2)cc1`, for which the “hERG current change (%, negative = inhibition) at 10uM” value was 8.08%.

Regarding `COc1ccc(-n2cc(C(=O)O)c(=O)cc2C)cc1`, the “hERG current change (%, negative = inhibition) at 10uM” value came to 5.98%.

Regarding `CN(C)c1ccc(-c2nnn(CC(=O)NCc3ccc4c(c3)OCO4)n2)cc1`, the “hERG current change (%, negative = inhibition) at 10uM” value is reported as -0.969%.

Take `C/C(=C\C(=O)c1ccc(Br)cc1)N1CCCCC1`: the “hERG current change (%, negative = inhibition) at 10uM” value is reported as -31.7%.

For `N#Cc1ccccc1Sc1ccccc1C(=O)OCC(N)=O`, the “hERG current change (%, negative = inhibition) at 10uM” value turned out to be 10.7%.

For `COc1ccc(Cn2ccnc2SCC(=O)Nc2ccccc2F)cc1`, the “hERG current change (%, negative = inhibition) at 10uM” value is recorded as -6.04%.

Take `Cc1cc(OCc2cc(C(=O)NCCN3CCCCC3CO)no2)cc(C)c1Cl` (centres unmarked): the “hERG current change (%, negative = inhibition) at 10uM” value was -65.8%.

Consider `COc1ccc(/C=N/NC(=O)c2nn(-c3ccc(Cl)cc3)c(=O)c3c(N)scc23)cc1`, for which the “hERG current change (%, negative = inhibition) at 10uM” value was found to be 3.8%.

With `Cc1cc(-c2onc(C)c2C(N)=O)no1`, the “hERG current change (%, negative = inhibition) at 10uM” value came to 12.5%.

For `O=C(c1ccccc1)N1CCN(c2ccc(N3CCOCC3)nn2)CC1`, the “hERG current change (%, negative = inhibition) at 10uM” value is recorded as -1.73%.

For `CC(C)C(=O)NNS(=O)(=O)c1ccccc1`, the “hERG current change (%, negative = inhibition) at 10uM” value was found to be 29%.

Consider `COc1cc(/C=C/C(=O)OCC(=O)N2c3ccccc3NC(=O)C2(C)C)cc(OC)c1OC`, for which the “hERG current change (%, negative = inhibition) at 10uM” value is given as -11.8%.

Turning to `O=C1CCCC(O)=C1N=Nc1ccc2c(c1)OCO2`, the “hERG current change (%, negative = inhibition) at 10uM” value was found to be 2.59%.

With `CCN(CC)S(=O)(=O)c1ccc(OC(C)C)c(N)c1`, the “hERG current change (%, negative = inhibition) at 10uM” value stood at 7.23%.

With `CSc1ccc(CN(C)C(=O)c2cc(=O)c3ccccc3o2)cc1`, the “hERG current change (%, negative = inhibition) at 10uM” value is given as -71.4%.

For `O=C(CN(c1ccc(F)cc1)S(=O)(=O)c1ccccc1)NCc1ccco1`, the “hERG current change (%, negative = inhibition) at 10uM” value is -5.91%.

As to `O=C(NC1CCCCC1)N1CCCCCC1`, the “hERG current change (%, negative = inhibition) at 10uM” value is recorded as -3.92%.

Take `Cc1sc2nc(CSC(C)C(=O)Nc3ccc(C(N)=O)cc3)[nH]c(=O)c2c1C` (centres unmarked): the “hERG current change (%, negative = inhibition) at 10uM” value stood at 2.13%.

Regarding `O=C(CSc1nnc2c(n1)[nH]c1ccc(F)cc12)NCc1ccc(F)cc1`, the “hERG current change (%, negative = inhibition) at 10uM” value is 5.3%.

Take `CC(=O)Nc1ccc(NC(=O)Cn2c(=O)n(-c3ccc(F)cc3)c(=O)c3oc4ccccc4c32)cc1`: the “hERG current change (%, negative = inhibition) at 10uM” value is 10.3%.
